# Results as given in the supplement of paper PMC4166925.
# ± gives the standard deviation of the averaged measurements. Over roughly 33,000 sequences, “E-score (dimensionless, -0.5 to 0.5)” has its median near -0.046; the highest 2% begin near 0.36. The list shows a part of the results.
# Test system: T1, SpTbr T-box DNA-binding domain (GST fusion)
# T1 sequence: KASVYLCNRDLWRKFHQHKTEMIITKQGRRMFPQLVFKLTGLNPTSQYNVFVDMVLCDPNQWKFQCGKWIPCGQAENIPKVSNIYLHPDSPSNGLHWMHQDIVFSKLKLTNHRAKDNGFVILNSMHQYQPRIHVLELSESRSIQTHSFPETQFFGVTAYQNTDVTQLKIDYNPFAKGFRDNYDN
# Experiment: PBM E-score of 8-mer (E-score (dimensionless, -0.5 to 0.5)); Tbr is Tbrain of the sea star Patiria miniata (Pm) or the sea urchin Strongylocentrotus purpuratus (Sp); higher = stronger binding preference; most listed sequences are background and not binding sites
# Conditions: the construct has about 5 more residues each side
# Procedure, shortened: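 Primer extension turned Universal Agilent oligonucleotide arrays double-stranded. They were incubated with 200 nM protein in PBS (pH 7.5); the protein was a GST-fused Tbr T-box DNA-binding domain expressed in BL21 E. coli at 20 °C and purified on glutathione. Every ungapped 8-mer was scored from the scanned, quantified probe intensities, and the Universal PBM Analysis Suite gave each an enrichment E-score averaged over duplicate arrays.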
row,Sequence,PBM E-score of 8-mer
1,AATGTGGG,0.192 ± 0.026
2,ACTGGCCC,-0.0963 ± 0.011
3,GCGAACAA,0.242 ± 0.034
4,GCGTCTCA,-0.0113 ± 0.071
5,ACCGCCCA,-0.00764 ± 0.031
6,AAGAGACA,-0.138 ± 0.03
7,AACAGGGC,0.0715 ± 0.005
8,CTCAAATC,0.0277 ± 0.0069
9,AACCAAAG,-0.217 ± 0.045
10,CCACGGCC,0.13 ± 0.012
11,CGATCGAA,-0.0274 ± 0.047
12,ATGGCGCA,0.00485 ± 0.003
13,AATCCGCG,0.14 ± 0.038
14,ACTATTTA,0.0802 ± 0.047
15,CCAGTACC,0.00782 ± 0.031
16,GAGTAGTA,-0.197 ± 0.015
17,CCTACCCG,-0.052 ± 0.034
18,CACATAGC,0.237 ± 0.045
19,AGCCGGGG,-0.319 ± 0.0068
20,AGCTATGC,-0.2219 ± 0.00032
21,CAATGGCA,0.119 ± 0.014
22,CATCTGAC,0.00663 ± 0.031
23,CTACTTAC,0.146 ± 0.039
24,AATTCTGT,-0.0279 ± 0.099
25,GCCGAACC,-0.284 ± 0.062

row,Sequence,PBM E-score of 8-mer
1,AACAATTA,0.0621 ± 0.089
2,GGTGGGAC,0.196 ± 0.02
3,AACTATCC,-0.173 ± 0.026
4,ATTACACC,0.358 ± 0.057
5,CTACGCAC,0.0937 ± 0.02
6,CGTTACAC,0.17 ± 0.0073
7,GCGTTTCA,-0.224 ± 0.049
8,GGTGTCCA,0.278 ± 0.027
9,ACTGAAAG,-0.0707 ± 0.025
10,CCCTTGGA,-0.165 ± 0.069
11,CCAGCGTA,-0.141 ± 0.064
12,CAAAGTCA,-0.111 ± 0.044
13,AGATGCAC,-0.167 ± 0.066
14,CTATTCGA,-0.172 ± 0.1
15,CTTGCCGC,-0.101 ± 0.037
16,GAAGCTTC,-0.13 ± 0.07
17,GAATTCAA,-0.183 ± 0.029
18,GGCATCCA,-0.204 ± 0.016
19,CCGAGGTA,-0.232 ± 0.016
20,GGTTAGCA,0.257 ± 0.034
21,AAAAATGC,-0.17 ± 0.065
22,AAGCATTG,-0.0285 ± 0.025
23,GAACGGAC,0.108 ± 0.011
24,AGGAGATC,-0.171 ± 0.027
25,AGCCTTAA,-0.231 ± 0.065

row,Sequence,PBM E-score of 8-mer
1,AAGGGTAC,-0.0379 ± 0.051
2,AACAAGTG,0.298 ± 0.035
3,GTGGAGCA,-0.0556 ± 0.12
4,AATCTTCA,0.0329 ± 0.0011
5,CGACCCAC,0.00361 ± 0.024
6,AGGAAGCC,-0.213 ± 0.13
7,GCTCCGAA,-0.0394 ± 0.01
8,AGTATTCC,-0.0913 ± 0.0088
9,CAGCACTA,-0.222 ± 0.027
10,AAGTATTG,-0.0751 ± 0.015
11,CCCAGTTC,-0.182 ± 0.031
12,GGAGCCGA,0.068 ± 0.06
13,TGTCCACA,0.194 ± 0.038
14,TATTTGCA,-0.0069 ± 0.0097
15,ACACTGAT,0.138 ± 0.017
16,GTGTTTGA,0.2 ± 0.022
17,ACAAGAAA,-0.213 ± 0.068
18,ACCAGGAC,-0.0953 ± 0.096
19,AGGCGAGA,0.373 ± 0.012
20,AGAATGAG,-0.244 ± 0.1
21,CGTAGGAC,-0.173 ± 0.15
22,GACACAAA,0.131 ± 0.02
23,CCTTTCTA,-0.051 ± 0.018
24,CGGAATCC,-0.281 ± 0.036
25,CTCGTGCA,-0.01 ± 0.0087

row,Sequence,PBM E-score of 8-mer
1,AATCCATA,-0.12 ± 0.025
2,CGCGATAC,0.216 ± 0.031
3,AGAATCAC,0.146 ± 0.038
4,CCACGTCG,-0.0397 ± 0.074
5,GCTTACTA,-0.289 ± 0.027
6,ACAACGGG,0.0126 ± 0.012
7,CGACTAGA,-0.189 ± 0.11
8,CCAGGCTA,-0.0877 ± 0.07
9,ACTCACCG,-0.0434 ± 0.074
10,CATTTGAC,0.0519 ± 0.013
11,CCGACGGA,-0.145 ± 0.038
12,GTAGGACA,-0.123 ± 0.1
13,CTTGAGCA,-0.0556 ± 0.08
14,ACGGCAAT,-0.046 ± 0.033
15,CAGGCTCG,0.137 ± 0.005
16,TCACGTGA,0.121 ± 0.017
17,GTCCCAAA,-0.1864 ± 0.0015
18,CTAACTAC,-0.126 ± 0.1
19,GCGACTCA,0.113 ± 0.0099
20,GGAACAAA,-0.243 ± 0.025
21,GAAAATTA,-0.0582 ± 0.0082
22,CTAGGACC,-0.189 ± 0.05
23,AGTAGAGA,-0.138 ± 0.032
24,CCCGCGTA,-0.068 ± 0.043
25,TACCGGAA,-0.116 ± 0.02

row,Sequence,PBM E-score of 8-mer
1,CTCGGTAC,-0.085 ± 0.026
2,CCCGACAA,0.154 ± 0.02
3,GCGCTCAC,0.227 ± 0.024
4,ACAATGGG,-0.135 ± 0.044
5,CGTCTGTA,-0.0863 ± 0.06
6,AGTATAAA,-0.145 ± 0.023
7,GAGCGGGC,0.0434 ± 0.076
8,AGGATGAA,-0.147 ± 0.026
9,ATGGGCAC,-0.234 ± 0.035
10,AAAGCTCA,-0.0105 ± 0.0013
11,AGACAATC,-0.0496 ± 0.029
12,GAAACCCA,-0.0056 ± 0.087
13,CTTAACAA,0.243 ± 0.0056
14,AGTCCCGG,-0.0982 ± 0.0088
15,TGAGACCA,-0.0282 ± 0.077
16,ATCTGTTG,0.0461 ± 0.032
17,AGCTGCGG,-0.169 ± 0.037
18,GCGCTATA,0.0546 ± 0.067
19,CACGTTAA,0.132 ± 0.0036
20,ACAGATCG,0.145 ± 0.023
21,CTGCACGC,-0.0619 ± 0.018
22,AAGCCTAG,-0.28 ± 0.055
23,GCTTATAA,-0.245 ± 0.0063
24,ACCGCAGA,-0.255 ± 0.025
25,TCTCGAGA,-0.0187 ± 0.0036

row,Sequence,PBM E-score of 8-mer
1,AGGTCTAT,-0.337 ± 0.021
2,AGATCAAT,-0.155 ± 0.054
3,CTATATGC,0.0143 ± 0.068
4,CGACGCTA,0.133 ± 0.039
5,AGCCGAGG,0.0655 ± 0.041
6,AATTTGAA,-0.21 ± 0.078
7,GATCTAGC,-0.178 ± 0.0028
8,CCGATAAG,-0.134 ± 0.12
9,ACATGTTA,0.00883 ± 0.016
10,CTAGTATC,-0.102 ± 0.054
11,AACATACT,-0.0527 ± 0.066
12,CATAAGCA,0.0453 ± 0.02
13,TAACACCA,0.43 ± 0.011
14,AGCCTTAG,-0.311 ± 0.059
15,AGGTGTGC,0.445 ± 0.014
16,ACATTATG,-0.0516 ± 0.044
17,GATTGAAA,-0.118 ± 0.062
18,CCCGTGCA,-0.113 ± 0.03
19,CCTCAGAG,0.0663 ± 0.019
20,ACGACAGT,0.148 ± 0.01
21,AATACTCA,-0.0624 ± 0.011
22,TACGCGCA,0.0375 ± 0.032
23,AGTCTGGC,-0.252 ± 0.0068
24,CGAACATC,0.0324 ± 0.0025
25,GTCCCAGA,-0.196 ± 0.066

row,Sequence,PBM E-score of 8-mer
1,CTCACGAC,0.105 ± 0.023
2,CCCAAAAG,-0.137 ± 0.013
3,AAGGCTGG,-0.0878 ± 0.024
4,AGTGGAGA,-0.0675 ± 0.13
5,ATAGTGGC,0.0512 ± 0.057
6,ATAGGGGG,-0.142 ± 0.03
7,AAGGAACG,-0.138 ± 0.027
8,ATCATACG,-0.0455 ± 0.062
9,AGCCGCCG,0.0372 ± 0.077
10,ATACTGAA,-0.174 ± 0.019
11,AACACCTG,0.463 ± 0.0057
12,ATACGAGC,-0.0328 ± 0.004
13,CATACTGG,-0.125 ± 0.081
14,GTTCTGTA,0.00666 ± 0.0032
15,ACTTCAGG,0.111 ± 0.13
16,AGAACATA,0.0118 ± 0.012
17,CAACGCCA,0.106 ± 0.015
18,TTCCCAAA,-0.205 ± 0.086
19,CATGCTGA,-0.00241 ± 0.01
20,ATCCGGCC,-0.219 ± 0.015
21,CTTGACAC,0.436 ± 0.0093
22,GCCCTATA,-0.244 ± 0.014
23,TAAAAAGA,-0.118 ± 0.082
24,ACGTGCGC,0.122 ± 0.029
25,ACGACGAC,0.171 ± 0.0032

row,Sequence,PBM E-score of 8-mer
1,GAACATCA,-0.103 ± 0.008
2,GCTCGTCC,-0.321 ± 0.022
3,ATGTGTAA,0.342 ± 0.0099
4,CAGTGCGC,0.00847 ± 0.051
5,AGGCTATG,-0.349 ± 0.078
6,CGTGATTA,0.179 ± 0.019
7,GAGTTAAC,0.148 ± 0.066
8,CCAGGCGC,0.22 ± 0.04
9,CTTAACGC,0.268 ± 0.028
10,ACCCCAGG,-0.0991 ± 0.002
11,CTGGAACC,-0.212 ± 0.023
12,AACCAGCT,0.104 ± 0.066
13,AGTCAGAT,-0.0982 ± 0.017
14,CGTTGACC,0.0141 ± 0.0079
15,GAAGCATC,-0.125 ± 0.018
16,CCAATGGA,-0.135 ± 0.0076
17,CAGCTGGC,0.0425 ± 0.028
18,GTTGCGTA,0.048 ± 0.029
19,CGAAATAC,0.0213 ± 0.03
20,AAGCTATA,-0.0728 ± 0.05
21,AGCAAATA,-0.0692 ± 0.018
22,GGCTCTAA,0.0644 ± 0.035
23,CAAGGGTC,-0.194 ± 0.032
24,CGTAACGC,0.0933 ± 0.014
25,AGGTCAAG,-0.2167 ± 0.00059

row,Sequence,PBM E-score of 8-mer
1,CCCGCTTA,-0.15 ± 0.095
2,GCAGCTCC,0.0185 ± 0.065
3,CAGCCATG,-0.12 ± 0.027
4,GGTTAGAA,-0.147 ± 0.013
5,TACTAGAA,-0.301 ± 0.035
6,ATCTCGTA,-0.0335 ± 0.027
7,AACGGAGT,0.074 ± 0.025
8,ACGTAAGC,0.0625 ± 0.067
9,CGAGGTGC,0.445 ± 0.0072
10,GCTAGCTA,0.117 ± 0.03
11,ATGGAGAC,-0.173 ± 0.012
12,ATTATATC,-0.136 ± 0.018
13,GAGCCCAA,-0.187 ± 0.032
14,CATGCACC,-0.1 ± 0.018
15,CTCGAGTC,-0.181 ± 0.018
16,GGTATGAA,0.04482 ± 0.00011
17,GGGTTGCA,-0.0388 ± 0.04
18,AAGATTGC,-0.117 ± 0.02
19,CTGCGTGA,0.172 ± 0.033
